# The list shows a part of the results.
# B1: LcH (Lens culinaris), P02870 (protein)
# chain: TETTSFSITKFSPDQQNLIFQGDGYTGKEGLTLTKVSKETGGRALYSTPIHIWDRDTVNVANFVTNGSQVFRESPNGYNVADGFTFFIAPVDTKPQTGGGYLGVFYNGKEYDKTSQTVAVEFDTFYNAAWDPSNKERHIGIDVNSIKSVNTKSWNLQNGVTSYTLNEVVPLKDVVPEWVRIGFSATTGAEFAAQEVHSWSFNSQLGHTSKS
# What was measured:
# Assay in all cases: glycan array binding signal (z-score within array); higher = stronger binding
# Details in all cases: glycan notation: IUPAC condensed, linker removed
# [1] = molecular target: Neu5Ac(a2-3)Gal(b1-4)[Fuc(a1-3)]GlcNAc(b1-3)Gal(b1-4)[Fuc(a1-3)]GlcNAc(b1-3)Gal(b1-4)[Fuc(a1-3)]GlcNAc
# Method in brief: (§1)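 The Consortium for Functional Glycomics database supplied 3228 glycan arrays, of which those lacking an available protein sequence were dropped. The binding signal, a within-array Z-score, was averaged across arrays of the same protein sequence and across linkers. Negative scores can be read as non-binding.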
# [2] = molecular target: Neu5Ac(a2-3)Gal(b1-4)[Fuc(a1-3)]GlcNAc(b1-6)[Gal(b1-3)]GalNAc
# Method in brief: as §1
# [3] = molecular target: Neu5Ac(a2-3)Gal(b1-4)[Fuc(a1-3)]GlcNAc(b1-6)[Neu5Ac(a2-3)Gal(b1-3)]GalNAc
# Method in brief: as §1
# [4] = molecular target: Neu5Ac(a2-3)Gal(b1-4)[Fuc(a1-3)]GlcNAc6S
# Method in brief: as §1
# [5] = molecular target: Neu5Ac(a2-3)Gal6S(b1-4)GlcNAc
# Method in brief: as §1
# [6] = molecular target: Neu5Ac(a2-3)Gal6S(b1-4)[Fuc(a1-3)]GlcNAc
# Method in brief: as §1
# Neu5Ac(a2-3)GalNAc = molecular target: Neu5Ac(a2-3)GalNAc
# Method in brief: as §1
# [7] = molecular target: Neu5Ac(a2-3)GalNAc(b1-4)GlcNAc
# Method in brief: as §1
# [8] = molecular target: Neu5Ac(a2-3)[GalNAc(b1-4)]Gal(b1-4)Glc
# Method in brief: as §1
# [9] = molecular target: Neu5Ac(a2-3)[GalNAc(b1-4)]Gal(b1-4)GlcNAc
# Method in brief: as §1
# [10] = molecular target: Neu5Ac(a2-3)[Neu5Ac(a2-6)]GalNAc
# Method in brief: as §1
# Neu5Ac(a2-6)Gal = molecular target: Neu5Ac(a2-6)Gal
# Method in brief: as §1
# Neu5Ac(a2-6)Gal(b1-4)Glc = molecular target: Neu5Ac(a2-6)Gal(b1-4)Glc
# Method in brief: as §1
# [11] = molecular target: Neu5Ac(a2-6)Gal(b1-4)GlcNAc
# Method in brief: as §1
# [12] = molecular target: Neu5Ac(a2-6)Gal(b1-4)GlcNAc(b1-2)Man(a1-3)Man(b1-4)GlcNAc(b1-4)GlcNAc
# Method in brief: as §1
# [13] = molecular target: Neu5Ac(a2-6)Gal(b1-4)GlcNAc(b1-2)Man(a1-3)[Gal(b1-4)GlcNAc(b1-2)Man(a1-6)]Man(b1-4)GlcNAc(b1-4)GlcNAc
# Method in brief: as §1
# [14] = molecular target: Neu5Ac(a2-6)Gal(b1-4)GlcNAc(b1-2)Man(a1-3)[GlcNAc(b1-2)Man(a1-6)]Man(b1-4)GlcNAc(b1-4)GlcNAc
# Method in brief: as §1
# [15] = molecular target: Neu5Ac(a2-6)Gal(b1-4)GlcNAc(b1-2)Man(a1-3)[GlcNAc(b1-2)Man(b1-4)GlcNAc(b1-2)Man(a1-6)]Man(b1-4)GlcNAc(b1-4)GlcNAc
# Method in brief: as §1
# [16] = molecular target: Neu5Ac(a2-6)Gal(b1-4)GlcNAc(b1-2)Man(a1-3)[Man(a1-6)]Man(b1-4)GlcNAc(b1-4)GlcNAc
# Method in brief: as §1
# [17] = molecular target: Neu5Ac(a2-6)Gal(b1-4)GlcNAc(b1-2)Man(a1-3)[Neu5Ac(a2-6)Gal(b1-4)GlcNAc(b1-2)Man(a1-6)]Man(b1-4)GlcNAc(b1-4)GlcNAc
# Method in brief: as §1
# [18] = molecular target: Neu5Ac(a2-6)Gal(b1-4)GlcNAc(b1-2)Man(a1-6)Man(b1-4)GlcNAc(b1-4)GlcNAc
# Method in brief: as §1
# [19] = molecular target: Neu5Ac(a2-6)Gal(b1-4)GlcNAc(b1-2)Man(a1-6)[Gal(b1-4)GlcNAc(b1-2)Man(a1-3)]Man(b1-4)GlcNAc(b1-4)GlcNAc
# Method in brief: as §1
# [20] = molecular target: Neu5Ac(a2-6)Gal(b1-4)GlcNAc(b1-2)Man(a1-6)[GlcNAc(b1-2)Man(a1-3)]Man(b1-4)GlcNAc(b1-4)GlcNAc
# Method in brief: as §1
# [21] = molecular target: Neu5Ac(a2-6)Gal(b1-4)GlcNAc(b1-2)Man(a1-6)[Man(a1-3)]Man(b1-4)GlcNAc(b1-4)GlcNAc
# Method in brief: as §1
# [22] = molecular target: Neu5Ac(a2-6)Gal(b1-4)GlcNAc(b1-3)Gal(b1-3)GlcNAc
# Method in brief: as §1
# [23] = molecular target: Neu5Ac(a2-6)Gal(b1-4)GlcNAc(b1-3)Gal(b1-4)GlcNAc
# Method in brief: as §1
# [24] = molecular target: Neu5Ac(a2-6)Gal(b1-4)GlcNAc(b1-3)Gal(b1-4)GlcNAc(b1-3)Gal(b1-4)GlcNAc
# Method in brief: as §1
# [25] = molecular target: Neu5Ac(a2-6)Gal(b1-4)GlcNAc(b1-3)Gal(b1-4)[Fuc(a1-3)]GlcNAc(b1-3)Gal(b1-4)[Fuc(a1-3)]GlcNAc
# Method in brief: as §1
# [26] = molecular target: Neu5Ac(a2-6)Gal(b1-4)GlcNAc(b1-3)GalNAc
# Method in brief: as §1
# [27] = molecular target: Neu5Ac(a2-6)Gal(b1-4)GlcNAc6S
# Method in brief: as §1
# Neu5Ac(a2-6)GalNAc = molecular target: Neu5Ac(a2-6)GalNAc
# Method in brief: as §1
# [28] = molecular target: Neu5Ac(a2-6)GalNAc(b1-4)GlcNAc
# Method in brief: as §1
# [29] = molecular target: Neu5Ac(a2-6)GlcNAc(b1-4)GlcNAc
# Method in brief: as §1
# [30] = molecular target: Neu5Ac(a2-6)GlcNAc(b1-4)GlcNAc(b1-4)GlcNAc
# Method in brief: as §1
# Neu5Ac(a2-8)Neu5Ac = molecular target: Neu5Ac(a2-8)Neu5Ac
# Method in brief: as §1
# [31] = molecular target: Neu5Ac(a2-8)Neu5Ac(a2-3)Gal(b1-4)Glc
# Method in brief: as §1
# [32] = molecular target: Neu5Ac(a2-8)Neu5Ac(a2-3)[GalNAc(b1-4)]Gal(b1-4)Glc
# Method in brief: as §1
# [33] = molecular target: Neu5Ac(a2-8)Neu5Ac(a2-8)Neu5Ac
# Method in brief: as §1
# [34] = molecular target: Neu5Ac(a2-8)Neu5Ac(a2-8)Neu5Ac(a2-3)Gal(b1-4)Glc
# Method in brief: as §1
# [35] = molecular target: Neu5Ac(a2-8)Neu5Ac(a2-8)Neu5Ac(a2-3)[GalNAc(b1-4)]Gal(b1-4)Glc
# Method in brief: as §1
# [36] = molecular target: Neu5Ac(a2-8)Neu5Ac(a2-8)Neu5Ac(a2-8)Neu5Ac(a2-3)[GalNAc(b1-4)]Gal(b1-4)Glc
# Method in brief: as §1
# [37] = molecular target: Neu5Ac(b2-6)Gal(b1-4)GlcNAc
# Method in brief: as §1
# Neu5Ac(b2-6)GalNAc = molecular target: Neu5Ac(b2-6)GalNAc
# Method in brief: as §1
# [38] = molecular target: Neu5Ac9Ac(a2-3)Gal(b1-3)GlcNAc
# Method in brief: as §1
# [39] = molecular target: Neu5Ac9Ac(a2-3)Gal(b1-4)GlcNAc
# Method in brief: as §1
# [40] = molecular target: Neu5Ac9Ac(a2-6)Gal(b1-4)GlcNAc
# Method in brief: as §1
# [41] = molecular target: Neu5Gc(a2-3)Gal(b1-3)GlcNAc
# Method in brief: as §1
# [42] = molecular target: Neu5Gc(a2-3)Gal(b1-3)[Fuc(a1-4)]GlcNAc
# Method in brief: as §1
# Neu5Gc(a2-3)Gal(b1-4)Glc = molecular target: Neu5Gc(a2-3)Gal(b1-4)Glc
# Method in brief: as §1
# [43] = molecular target: Neu5Gc(a2-3)Gal(b1-4)GlcNAc
# Method in brief: as §1
# [44] = molecular target: Neu5Gc(a2-3)Gal(b1-4)[Fuc(a1-3)]GlcNAc
# Method in brief: as §1
# [45] = molecular target: Neu5Gc(a2-6)Gal(b1-4)GlcNAc
# Method in brief: as §1
# Neu5Gc(a2-6)GalNAc = molecular target: Neu5Gc(a2-6)GalNAc
# Method in brief: as §1
# [46] = molecular target: Neu5Gc(b2-6)Gal(b1-4)GlcNAc
# Method in brief: as §1
binder,measurement,setting,value
B1,glycan array binding signal (z-score),[1],-0.137
same,glycan array binding signal (z-score),[2],-0.164
same,glycan array binding signal (z-score),[3],-0.14
same,glycan array binding signal (z-score),[4],-0.109
same,glycan array binding signal (z-score),[5],-0.147
same,glycan array binding signal (z-score),[6],-0.116
same,glycan array binding signal (z-score),Neu5Ac(a2-3)GalNAc,-0.119
same,glycan array binding signal (z-score),[7],-0.118
same,glycan array binding signal (z-score),[8],-0.116
same,glycan array binding signal (z-score),[9],-0.133
same,glycan array binding signal (z-score),[10],-0.12
same,glycan array binding signal (z-score),Neu5Ac(a2-6)Gal,-0.107
same,glycan array binding signal (z-score),Neu5Ac(a2-6)Gal(b1-4)Glc,-0.116
same,glycan array binding signal (z-score),[11],-0.103
same,glycan array binding signal (z-score),[12],-0.132
same,glycan array binding signal (z-score),[13],-0.094
same,glycan array binding signal (z-score),[14],-0.146
same,glycan array binding signal (z-score),[15],-0.104
same,glycan array binding signal (z-score),[16],-0.124
same,glycan array binding signal (z-score),[17],-0.12
same,glycan array binding signal (z-score),[18],-0.123
same,glycan array binding signal (z-score),[19],-0.081
same,glycan array binding signal (z-score),[20],-0.116
same,glycan array binding signal (z-score),[21],-0.124
same,glycan array binding signal (z-score),[22],-0.085
same,glycan array binding signal (z-score),[23],-0.135
same,glycan array binding signal (z-score),[24],-0.088
same,glycan array binding signal (z-score),[25],-0.082
same,glycan array binding signal (z-score),[26],-0.092
same,glycan array binding signal (z-score),[27],-0.12
same,glycan array binding signal (z-score),Neu5Ac(a2-6)GalNAc,-0.099
same,glycan array binding signal (z-score),[28],-0.142
same,glycan array binding signal (z-score),[29],-0.117
same,glycan array binding signal (z-score),[30],-0.115
same,glycan array binding signal (z-score),Neu5Ac(a2-8)Neu5Ac,-0.091
same,glycan array binding signal (z-score),[31],-0.107
same,glycan array binding signal (z-score),[32],-0.13
same,glycan array binding signal (z-score),[33],-0.125
same,glycan array binding signal (z-score),[34],-0.138
same,glycan array binding signal (z-score),[35],-0.119
same,glycan array binding signal (z-score),[36],-0.111
same,glycan array binding signal (z-score),[37],-0.111
same,glycan array binding signal (z-score),Neu5Ac(b2-6)GalNAc,-0.131
same,glycan array binding signal (z-score),[38],-0.129
same,glycan array binding signal (z-score),[39],-0.077
same,glycan array binding signal (z-score),[40],-0.086
same,glycan array binding signal (z-score),[41],-0.134
same,glycan array binding signal (z-score),[42],-0.119
same,glycan array binding signal (z-score),Neu5Gc(a2-3)Gal(b1-4)Glc,-0.118
same,glycan array binding signal (z-score),[43],-0.121
same,glycan array binding signal (z-score),[44],-0.128
same,glycan array binding signal (z-score),[45],-0.125
same,glycan array binding signal (z-score),Neu5Gc(a2-6)GalNAc,-0.128
same,glycan array binding signal (z-score),[46],-0.128
